US7517874B2 (priority 2007, dated 2009)

Target: human CB2 receptor (hCB2) (Homo sapiens, UniProt P34972)
Experiment: cell-based
Assay type: cell-based
Settings: for +/− HCB2: agonist or inverse agonist at hCB2; for EC50: groups >100 nM-10 μM and >10 μM, cAMP, CHO-K1 hCB2, read-out: EC50 HCB2

human CB2 receptor (hCB2), sequence (P34972 whole entry): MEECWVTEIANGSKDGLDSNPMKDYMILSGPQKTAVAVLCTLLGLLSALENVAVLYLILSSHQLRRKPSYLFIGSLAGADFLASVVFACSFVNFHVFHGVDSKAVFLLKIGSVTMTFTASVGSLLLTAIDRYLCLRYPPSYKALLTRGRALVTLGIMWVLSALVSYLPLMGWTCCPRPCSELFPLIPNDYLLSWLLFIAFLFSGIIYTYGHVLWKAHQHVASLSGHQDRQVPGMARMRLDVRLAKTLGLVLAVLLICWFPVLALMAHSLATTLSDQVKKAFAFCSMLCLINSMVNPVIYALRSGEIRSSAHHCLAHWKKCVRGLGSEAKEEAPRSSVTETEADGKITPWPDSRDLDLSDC

| SMILES | +/− HCB2 | pEC50 | other results |
| --- | --- | --- | --- |
| Cc1noc([C@@H](NC(=O)c2nc(-c3ccccc3)n3c2CNCC3)C(C)(C)C)n1 [Compound 282, (S)-N-(2,2-dimethyl-1-(3-methyl-1,2,4-oxadiazol-5-yl)propyl)-3-phenyl-5,6,7,8-tetrahydroimidazo[1,5-a]pyrazine-1-carboxamide] | + |  |  |
| CNC(=O)[C@@H](NC(=O)c1nc(C2CCCCO2)n2c1CN(C)CCC2)C(C)(C)C (stereo partly drawn) [Compound 504, N-((S)-3,3-dimethyl-1-(methylamino)-1-oxobutan-2-yl)-8-methyl-3-(tetrahydro-2H-pyran-2-yl)-6,7,8,9-tetrahydro-5H-imidazo[1,5-a][1,4]diazepine-1-carboxamide] | + |  |  |
| CN1CCCn2c(-c3ccc(Cl)cc3F)nc(C(=O)N[C@H](C(=O)N(C)C)C(C)(C)C)c2C1 [Compound 556, (S)-3-(4-chloro-2-fluorophenyl)-N-(1-(dimethylamino)-3,3-dimethyl-1-oxobutan-2-yl)-8-methyl-6,7,8,9-tetrahydro-5H-imidazo[1,5-a][1,4]diazepine-1-carboxamide] | + |  |  |
| CCCC(CO)NC(=O)c1nc(-c2ccccc2)n2c1CN(C)CC2 (stereo not drawn) [Compound 233, N-(1-hydroxypentan-2-yl)-7-methyl-3-phenyl-5,6,7,8-tetrahydroimidazo[1,5-a]pyrazine-1-carboxamide] |  | < 5.00 |  |
| CNC(=O)[C@H](CC(C)(C)C)NC(=O)c1nc(-c2ccc(Cl)c(F)c2)n2c1CN(C)CCC2 [Compound 550, (S)-3-(4-chloro-3-fluorophenyl)-N-(4,4-dimethyl-1-(methylamino)-1-oxopentan-2-yl)-8-methyl-6,7,8,9-tetrahydro-5H-imidazo[1,5-a][1,4]diazepine-1-carboxamide] |  | < 5.00 |  |
| CNC(=O)[C@@H](NC(=O)c1nc(-c2ccncc2F)n2c1CN(C)CCC2)C(C)(C)C [Compound 451, (S)-N-(3,3-dimethyl-1-(methylamino)-1-oxobutan-2-yl)-3-(3-fluoropyridin-4-yl)-8-methyl-6,7,8,9-tetrahydro-5H-imidazo[1,5-a][1,4]diazepine-1-carboxamide] | + |  |  |
| CNC(=O)[C@@H](NC(=O)c1nc(-c2ccccc2)n2c1CN(C(=O)CC(C)(C)C)CC2)C(C)(C)C [Compound 188, (S)-N-(3,3-dimethyl-1-(methylamino)-1-oxobutan-2-yl)-7-(3,3-dimethylbutanoyl)-3-phenyl-5,6,7,8-tetrahydroimidazo[1,5-a]pyrazine-1-carboxamide] |  | < 5.00 |  |
| CC(C)(C)OC(=O)N1CCn2c(-c3ccccc3)nc(C(=O)NN3CCCCC3)c2C1 [Compound 35, tert-butyl 3-phenyl-1-(piperidin-1-ylcarbamoyl)-5,6-dihydroimidazo[1,5-a]pyrazine-7(8H)-carboxylate] | − |  |  |
| CCCC/C=C/c1nc(C(=O)N[C@H](C(=O)NC)C(C)(C)C)c2n1CCCN(C)C2 [Compound 400, (S,E)-N-(3,3-dimethyl-1-(methylamino)-1-oxobutan-2-yl)-3-(hex-1-enyl)-8-methyl-6,7,8,9-tetrahydro-5H-imidazo[1,5-a][1,4]diazepine-1-carboxamide] | + |  |  |
| CC(=O)N1CCn2c(-c3ccccc3)nc(C(=O)NCC3CCOCC3)c2C1 [Compound 176, 7-acetyl-3-phenyl-N-((tetrahydro-2H-pyran-4-yl)methyl)-5,6,7,8-tetrahydroimidazo[1,5-a]pyrazine-1-carboxamide] |  | < 5.00 |  |
| CNC(=O)[C@@H](NC(=O)c1nc(-c2cnn(C)c2)n2c1CN(C)CCC2)C(C)(C)C [Compound 447, (S)-N-(3,3-dimethyl-1-(methylamino)-1-oxobutan-2-yl)-8-methyl-3-(1-methyl-1H-pyrazol-4-yl)-6,7,8,9-tetrahydro-5H-imidazo[1,5-a][1,4]diazepine-1-carboxamide] | + |  |  |
| CN1CCCn2c(-c3cc(Cl)c(F)cc3F)nc(C(=O)N[C@@H](CC(C)(C)C)C(N)=O)c2C1 [Compound 591, (S)-N-(1-amino-4,4-dimethyl-1-oxopentan-2-yl)-3-(5-chloro-2,4-difluorophenyl)-8-methyl-6,7,8,9-tetrahydro-5H-imidazo[1,5-a][1,4]diazepine-1-carboxamide] | + |  |  |
| CC(C)CN1CCn2c(-c3ccccc3)nc(C(=O)NCC3CCOCC3)c2C1 [Compound 167, 7-isobutyl-3-phenyl-N-((tetrahydro-2H-pyran-4-yl)methyl)-5,6,7,8-tetrahydroimidazo[1,5-a]pyrazine-1-carboxamide] |  | < 5.00 |  |
| CNC(=O)[C@@H](NC(=O)c1nc(-c2ccc(Cl)c(F)c2)n2c1CN(C)CCC2)C(C)(C)C [Compound 373] | + |  |  |
| CNC(=O)[C@@H](NC(=O)c1nc(C2CC2)n2c1CN(C)CCC2)C(C)(C)C [Compound 435, (S)-3-cyclopropyl-N-(3,3-dimethyl-1-(methylamino)-1-oxobutan-2-yl)-8-methyl-6,7,8,9-tetrahydro-5H-imidazo[1,5-a][1,4]diazepine-1-carboxamide] | + |  |  |
| CC(C)(C)c1noc([C@@H](NC(=O)c2nc(-c3ccccc3)n3c2CN(C2CC2)CC3)C(C)(C)C)n1 [Compound 284, (S)-N-(1-(3-tert-butyl-1,2,4-oxadiazol-5-yl)-2,2-dimethylpropyl)-7-cyclopropyl-3-phenyl-5,6,7,8-tetrahydroimidazo[1,5-a]pyrazine-1-carboxamide] | + |  |  |
| CNC(=O)[C@@H](NC(=O)c1nc(-c2ccsc2)n2c1CN(CC1CC1)CC2)C(C)(C)C [Compound 74, (S)-7-(cyclopropylmethyl)-N-(3,3-dimethyl-1-(methylamino)-1-oxobutan-2-yl)-3-(thiophen-3-yl)-5,6,7,8-tetrahydroimidazo[1,5-a]pyrazine-1-carboxamide] |  | < 5.00 |  |
| CN1CCn2c(-c3ccccc3)nc(C(=O)NCC(C)(C)CO)c2C1 [Compound 82, N-(3-hydroxy-2,2-dimethylpropyl)-7-methyl-3-phenyl-5,6,7,8-tetrahydroimidazo[1,5-a]pyrazine-1-carboxamide] |  |  | EC50: > 10000 nM |
| CCC(CO)NC(=O)c1nc(-c2ccccc2)n2c1CN(C)CC2 (stereo not drawn) [Compound 232, N-(1-hydroxybutan-2-yl)-7-methyl-3-phenyl-5,6,7,8-tetrahydroimidazo[1,5-a]pyrazine-1-carboxamide] |  | < 5.00 |  |
| CNC(=O)C(NC(=O)c1nc(-c2ccccc2)n2c1CN(C)CCC2)C(C)(C)F (stereo not drawn) [Compound 605, N-(3-fluoro-3-methyl-1-(methylamino)-1-oxobutan-2-yl)-8-methyl-3-phenyl-6,7,8,9-tetrahydro-5H-imidazo[1,5-a][1,4]diazepine-1-carboxamide] | + |  |  |
| CCN1CCCn2c(-c3ccccc3)nc(C(=O)N[C@H](c3nc(C)no3)C(C)(C)C)c2C1 [Compound 524, (S)-N-(2,2-dimethyl-1-(3-methyl-1,2,4-oxadiazol-5-yl)propyl)-8-ethyl-3-phenyl-6,7,8,9-tetrahydro-5H-imidazo[1,5-a][1,4]diazepine-1-carboxamide] | + |  |  |
| CNC(=O)[C@@H](NC(=O)c1nc(-c2ccccc2Cl)n2c1CNCC2)C(C)(C)C [Compound 10, (S)-3-(2-chlorophenyl)-N-(3,3-dimethyl-1-(methylamino)-1-oxobutan-2-yl)-5,6,7,8-tetrahydroimidazo[1,5-a]pyrazine-1-carboxamide] | + |  |  |
| CN1CCn2c(-c3ccccc3)nc(C(=O)NC(C)(C)CO)c2C1 [Compound 230, N-(1-hydroxy-2-methylpropan-2-yl)-7-methyl-3-phenyl-5,6,7,8-tetrahydroimidazo[1,5-a]pyrazine-1-carboxamide] |  |  | EC50: > 10000 nM |
| CNC(=O)[C@@H](NC(=O)c1nc(-c2cc(Cl)ccc2F)n2c1CN(C)CC2)C(C)(C)C [Compound 246, (S)-3-(5-chloro-2-fluorophenyl)-N-(3,3-dimethyl-1-(methylamino)-1-oxobutan-2-yl)-7-methyl-5,6,7,8-tetrahydroimidazo[1,5-a]pyrazine-1-carboxamide] | + |  |  |
| CNC(=O)[C@@H](NC(=O)c1nc(-c2ccccc2)n2c1CN(C(C)=O)CCC2)C(C)(C)C [Compound 463, (S)-8-acetyl-N-(3,3-dimethyl-1-(methylamino)-1-oxobutan-2-yl)-3-phenyl-6,7,8,9-tetrahydro-5H-imidazo[1,5-a][1,4]diazepine-1-carboxamide] |  | < 5.00 |  |
| CNC(=O)[C@@H](NC(=O)c1nc(-c2cnn(C)c2)n2c1CNCC2)C(C)(C)C [Compound 17, (S)-N-(3,3-dimethyl-1-(methylamino)-1-oxobutan-2-yl)-3-(1-methyl-1H-pyrazol-4-yl)-5,6,7,8-tetrahydroimidazo[1,5-a]pyrazine-1-carboxamide] |  |  | EC50: > 10000 nM |
| Cc1ccc(-c2nc(C(=O)N[C@H](c3nc(C)no3)C(C)(C)C)c3n2CCCN(C(=O)OC(C)(C)C)C3)c(F)c1 [Compound 518, (S)-tert-butyl 1-(2,2-dimethyl-1-(3-methyl-1,2,4-oxadiazol-5-yl)propylcarbamoyl)-3-(2-fluoro-4-methylphenyl)-6,7-dihydro-5H-imidazo[1,5-a][1,4]diazepine-8(9H)-carboxylate] |  | < 5.00 |  |
| CNC(=O)[C@@H](NC(=O)c1nc(CCc2ccsc2)n2c1CN(C)CCC2)C(C)(C)C [Compound 495, (S)-N-(3,3-dimethyl-1-(methylamino)-1-oxobutan-2-yl)-8-methyl-3-(2-(thiophen-3-yl)ethyl)-6,7,8,9-tetrahydro-5H-imidazo[1,5-a][1,4]diazepine-1-carboxamide] | + |  |  |
| CNC(=O)[C@@H](NC(=O)c1nc(-c2ccccc2)n2c1CN(Cc1ccco1)CC2)C(C)(C)C [Compound 64, (S)-N-(3,3-dimethyl-1-(methylamino)-1-oxobutan-2-yl)-7-(furan-2-ylmethyl)-3-phenyl-5,6,7,8-tetrahydroimidazo[1,5-a]pyrazine-1-carboxamide] | + |  |  |
| C=C(C)c1nc(C(=O)N[C@H](C(=O)NC)C(C)(C)C)c2n1CCN(C)C2 [Compound 267, (S)-N-(3,3-dimethyl-1-(methylamino)-1-oxobutan-2-yl)-7-methyl-3-(prop-1-en-2-yl)-5,6,7,8-tetrahydroimidazo[1,5-a]pyrazine-1-carboxamide] | + |  |  |

pEC50: −log10 of the molar value. Where two headings read alike, the source gives them in different places.
